The term EC50 denotes the concentration giving half of the maximal effect. The IC50 is the concentration needed to halve the response being measured.

The text below walks through data of patent US11066414B2, “Cot modulators and methods of use thereof” (Gilead Sciences, Inc., priority 2015, dated 2021).

One assay relates to TNFα. The assay can be described thus: Cot Monocyte TNFα Cell Based Assay. To be noted: read-out: EC50 TNF, LPS-stimulated human monocytes.
In the next assay the target is Human Cot (Homo sapiens (Human), UniProt P41279). The assay can be described thus: High Throughput Cot Biochemical Assay. To be noted: read-out: IC50 HTRF; Cot HTRF (TR-FRET) biochemical assay. A general note: TR-FRET usually uses a lanthanide donor and a delayed reading to cut background.
Human Cot, sequence (P41279 30-397): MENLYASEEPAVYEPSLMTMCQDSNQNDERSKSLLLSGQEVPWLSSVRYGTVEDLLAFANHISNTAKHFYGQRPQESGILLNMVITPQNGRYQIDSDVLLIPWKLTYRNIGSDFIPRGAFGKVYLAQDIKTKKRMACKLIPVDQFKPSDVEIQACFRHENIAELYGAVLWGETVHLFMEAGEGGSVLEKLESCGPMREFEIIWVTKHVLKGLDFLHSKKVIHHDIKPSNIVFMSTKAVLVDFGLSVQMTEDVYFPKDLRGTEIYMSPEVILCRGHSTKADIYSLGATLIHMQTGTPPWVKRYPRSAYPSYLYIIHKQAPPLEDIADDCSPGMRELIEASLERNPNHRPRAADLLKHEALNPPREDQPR

For the compound `N#CCC[C@@H](Nc1c(C#N)cnc2c(Cl)cc(NC(c3cn(C4CC4)nn3)c3cccnc3F)cc12)c1ccccc1` (stereo partly drawn) [Example 71, 8-chloro-4-(((R)-3-cyano-1-phenyl-propyl)amino)-6-(((1-cyclopropyl-1H-1,2,3-triazol-4-yl)(2-fluoropyridin-3-yl)methyl-d)amino)quinoline-3-carbonitrile], the EC50 in the assay with TNFα is 36 nM. Moreover, the IC50 on Human Cot turned out to be 2 nM.
As to `Cc1nc(F)ccc1C(Nc1cc(Cl)c2ncc(C#N)c(N[C@H](CCC#N)c3ccccc3)c2c1)c1cn(C2CC2)nn1` (stereo partly drawn) [Example 72, 8-chloro-4-(((R)-3-cyano-1-phenyl-propyl)amino)-6-(((1-cyclopropyl-1H-1,2,3-triazol-4-yl)(6-fluoro-2-methylpyridin-3-yl)methyl-d)amino)quinoline-3-carbonitrile], at Human Cot, the IC50 came to 1 nM.
Consider `N#CCC[C@@H](Nc1c(C#N)cnc2c(Cl)cc(NC(c3cn(C4CC4)nn3)c3cccnc3Cl)cc12)c1ccccc1` (stereo partly drawn) [Example 73, 8-chloro-6-(((2-chloropyridin-3-yl)(1-cyclopropyl-1H-1,2,3-triazol-4-yl)methyl-d)amino)-4-(((R)-3-cyano-1-phenylpropyl)amino)quinoline-3-carbonitrile], for which, in the assay on TNFα, the EC50 was 33 nM. In addition, the IC50 at Human Cot came out at 2 nM.
In the case of `CC(C)(C)CNc1c(C#N)cnc2c(C#N)cc(N[C@H](c3cn(C4CC4)nn3)c3cccc4c3CNC4)cc12` [Example 79, (S)-6-(((1-cyclopropyl-1H-1,2,3-triazol-4-yl)(isoindolin-4-yl)methyl)amino)-4-(neopentylamino)quinoline-3,8-dicarbonitrile], the EC50 in the assay on TNFα is 203 nM. On Human Cot, the IC50 was found to be 1 nM.
Consider `N#Cc1cnc2c(Cl)cc(N[C@@H](c3ccc(F)nc3)c3cn(C4CC4)nn3)cc2c1NC1C2CC3CC(C2)CC1C3` (stereo partly drawn) [Example 95, 4-(((1S,3S,5S,7S)-adamantan-2-yl)amino)-8-chloro-6-(((S)-(1-cyclopropyl-1H-1,2,3-triazol-4-yl)(6-fluoropyridin-3-yl)methyl-d)amino)quinoline-3-carbonitrile], for which the EC50 in the assay with TNFα was 445 nM. Moreover, the IC50 at Human Cot came out at 10 nM.
With `CC(C)(C)CNc1c(C#N)cnc2c(F)cc(N[C@@H](c3ccc(F)nc3)c3cn(C4CC4)nn3)cc12` [Example 119, (S)-6-(((1-cyclopropyl-1H-1,2,3-triazol-4-yl)(6-fluoropyridin-3-yl)methyl-d)amino)-8-lluoro-4-(neopentylamino)quinoline-3-carbonitrile], the EC50 in the assay on TNFα amounted to 99 nM. Besides, the IC50 on Human Cot stood at 4 nM.
For the compound `CC(C)n1cc([C@@H](Nc2cc(Cl)c3ncc(C#N)c(Nc4ccc(F)c(Cl)c4)c3c2)c2cccn3cncc23)nn1` [Example 136, (S)-8-chloro-4-((3-chloro-4-fluorophenyl)amino)-6-((imidazo[1,S-a]pyridin-8-yl(1-isopropyl-1H-1,2,3-triazol-4-yl)methyl)amino)quinoline-3-carbonitrile], the EC50 in the assay with TNFα was 291 nM. For the same compound, the IC50 at Human Cot was 10 nM.
With `CC[C@@H](Nc1c(C#N)cnc2c(Cl)cc(N[C@@H](c3cccnc3)c3cn([C@H](C)C(F)(F)F)nn3)cc12)c1ccccc1` [Example 190, 8-chloro-4-(((R)-1-phenylpropyl)amino)-6-(((S)-pyridin-3-yl (1-((R)-1,1,1-trifluoropropan-2-yl)-1H-1,2,3-triazol-4-yl)methyl)amino)quinoline-3-carbonitrile], in the assay with TNFα, the EC50 was determined as 238 nM.
With `N#Cc1cnc2c(Cl)cc(N[C@@H](c3c[nH]nn3)c3cc4c(s3)CN(C3COC3)CC4)cc2c1Nc1ccc(F)c(Cl)c1` [Example 269, (S)-8-chloro-4-((3-chloro-4-fluorophenyl)amino)-6-(((6-(oxetan-3-yl)-4,5,6,7-tetrahydrothieno[2,3-c]pyridin-yl)(1H-1,2,3-triazol-4-yl)methyl)amino)quinoline-3-carbonitrile], the half-maximal effective concentration (EC50) in the assay on TNFα amounted to 326 nM. At Human Cot, the concentration for half-maximal inhibition (IC50) amounted to 6 nM.
With `CC[C@@H](Nc1c(C#N)cnc2c(C#N)cc(N[C@H](c3cn(C4CC4)nn3)c3cccc4c3CNC4)cc12)c1ccccc1` [Example 428, 6-(((S)-(1-cyclopropyl-1H-1,2,3-triazol-4-yl)(isoindolin-4-yl)methyl)amino)-4-(((R)-1-phenylpropyl)amino)quinoline-3,8-dicarbonitrile], the EC50 in the assay with TNFα is 69 nM. Further, the IC50 at Human Cot amounted to 1 nM.
